# Experimental data: the supplement of paper PMC8728848
# The list shows a part of the results.
# B1: PX14367B-bvu-516-23-516 (Bacteroides vulgatus) (protein)
# chain: LDTIPTTYVDAGSVFGKTGDAEKVLNGGWNYLMETFNSYANPGYGAMLRANDAMGSDVVLNSKYGFRTHNEFSAIYGKGGTNTLSWLLAYRVINDCNGVLDNIDAAEGTQADRNRIKGQALALRGFLYLHLASCYSFAIDKDPDAVCAPIYTQSTDETIAAEGKPASSVSEVYAQSINDLEEALELIPETYVRDAKHKIDNEVVLGILSRACLYARQWEKAKTYSDKLLAKDNYLMTESEYKAGFNSVDNKEWIWGHAQTNDQSNASYQFHYLDTTTKGSYYYSFNVDPYFRDLFEDGDYRKEMLFWATDPGADVESAAYVWMRNSKFRFRDIENQLGDIVLMRVAEIYLINAEAKAHLNDPDAINKLNDLKTARGAKTIHTNLSQQDLLETIWLERRKELWGEGFSLIDIIRNQQTVVRNAYPEGPIDYIYTDENGQTHTLKKKTQGHRFFNFPDKSAFCPNSKYYLYRITDSEELANKNLYKDHPKLSIYTK
# How the values were obtained:
# Test in all cases: glycan array binding signal (z-score within array); higher = stronger binding
# Conditions in all cases: glycan notation: IUPAC condensed, linker removed
# [1] = target: Gal(a1-3)[Gal(a1-4)]Gal(b1-4)GlcNAc
# Outline: (§1)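 From the Consortium for Functional Glycomics database, 3228 arrays were curated, keeping only those whose protein sequence was available. Binding is given as a within-array Z-score averaged across arrays sharing a protein sequence and across linkers. Negative Z-scores can be read as non-binding.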
# [2] = target: Gal(a1-4)Gal(b1-3)GlcNAc(b1-2)Man(a1-3)[Gal(a1-4)Gal(b1-3)GlcNAc(b1-2)Man(a1-6)]Man(b1-4)GlcNAc(b1-4)GlcNAc
# Outline: as §1
# Gal(a1-4)Gal(b1-4)Glc = target: Gal(a1-4)Gal(b1-4)Glc
# Outline: as §1
# Gal(a1-4)Gal(b1-4)GlcNAc = target: Gal(a1-4)Gal(b1-4)GlcNAc
# Outline: as §1
# [3] = target: Gal(a1-4)Gal(b1-4)GlcNAc(b1-2)Man(a1-3)[Gal(a1-4)Gal(b1-4)GlcNAc(b1-2)Man(a1-6)]Man(b1-4)GlcNAc(b1-4)GlcNAc
# Outline: as §1
# [4] = target: Gal(a1-4)Gal(b1-4)GlcNAc(b1-3)Gal(b1-4)Glc
# Outline: as §1
# Gal(a1-4)GlcNAc = target: Gal(a1-4)GlcNAc
# Outline: as §1
# Gal(a1-6)Glc = target: Gal(a1-6)Glc
# Outline: as §1
# Gal(b1-2)Gal = target: Gal(b1-2)Gal
# Outline: as §1
# Gal(b1-3)Gal = target: Gal(b1-3)Gal
# Outline: as §1
# Gal(b1-3)Gal(b1-4)GlcNAc = target: Gal(b1-3)Gal(b1-4)GlcNAc
# Outline: as §1
# Gal(b1-3)GalNAc = target: Gal(b1-3)GalNAc
# Outline: as §1
# [5] = target: Gal(b1-3)GalNAc(a1-3)[Fuc(a1-2)]Gal(b1-4)Glc
# Outline: as §1
# [6] = target: Gal(b1-3)GalNAc(a1-3)[Fuc(a1-2)]Gal(b1-4)GlcNAc
# Outline: as §1
# Gal(b1-3)GalNAc(b1-3)Gal = target: Gal(b1-3)GalNAc(b1-3)Gal
# Outline: as §1
# [7] = target: Gal(b1-3)GalNAc(b1-3)Gal(a1-4)Gal(b1-4)Glc
# Outline: as §1
# [8] = target: Gal(b1-3)GalNAc(b1-4)Gal(b1-4)Glc
# Outline: as §1
# [9] = target: Gal(b1-3)GalNAc(b1-4)[Neu5Ac(a2-3)]Gal(b1-4)Glc
# Outline: as §1
# Gal(b1-3)GlcNAc = target: Gal(b1-3)GlcNAc
# Outline: as §1
# [10] = target: Gal(b1-3)GlcNAc(a1-3)Gal(b1-4)GlcNAc
# Outline: as §1
# [11] = target: Gal(b1-3)GlcNAc(a1-6)Gal(b1-4)GlcNAc
# Outline: as §1
# Gal(b1-3)GlcNAc(b1-2)Man = target: Gal(b1-3)GlcNAc(b1-2)Man
# Outline: as §1
# [12] = target: Gal(b1-3)GlcNAc(b1-2)Man(a1-3)[Gal(b1-3)GlcNAc(b1-2)Man(a1-6)]Man(b1-4)GlcNAc(b1-4)GlcNAc
# Outline: as §1
# [13] = target: Gal(b1-3)GlcNAc(b1-2)Man(a1-3)[Gal(b1-3)GlcNAc(b1-2)Man(a1-6)]Man(b1-4)GlcNAc(b1-4)[Fuc(a1-6)]GlcNAc
# Outline: as §1
# [14] = target: Gal(b1-3)GlcNAc(b1-2)Man(a1-3)[GlcNAc(b1-4)][Gal(b1-3)GlcNAc(b1-2)Man(a1-6)]Man(b1-4)GlcNAc(b1-4)GlcNAc
# Outline: as §1
# [15] = target: Gal(b1-3)GlcNAc(b1-2)[Gal(b1-3)GlcNAc(b1-6)]Man(a1-6)[Gal(b1-3)GlcNAc(b1-2)Man(a1-3)]Man(b1-4)GlcNAc(b1-4)GlcNAc
# Outline: as §1
# [16] = target: Gal(b1-3)GlcNAc(b1-3)Gal(b1-3)GlcNAc
# Outline: as §1
# [17] = target: Gal(b1-3)GlcNAc(b1-3)Gal(b1-4)Glc
# Outline: as §1
# [18] = target: Gal(b1-3)GlcNAc(b1-3)Gal(b1-4)GlcNAc
# Outline: as §1
# [19] = target: Gal(b1-3)GlcNAc(b1-3)Gal(b1-4)GlcNAc(b1-2)Man(a1-3)[Gal(b1-3)GlcNAc(b1-3)Gal(b1-4)GlcNAc(b1-2)Man(a1-6)]Man(b1-4)GlcNAc(b1-4)GlcNAc
# Outline: as §1
# [20] = target: Gal(b1-3)GlcNAc(b1-3)Gal(b1-4)GlcNAc(b1-2)[Gal(b1-3)GlcNAc(b1-3)Gal(b1-4)GlcNAc(b1-6)]Man(a1-6)[Gal(b1-3)GlcNAc(b1-3)Gal(b1-4)GlcNAc(b1-2)Man(a1-3)]Man(b1-4)GlcNAc(b1-4)[Fuc(a1-6)]GlcNAc
# Outline: as §1
# [21] = target: Gal(b1-3)GlcNAc(b1-3)Gal(b1-4)GlcNAc(b1-3)Gal(b1-4)GlcNAc(b1-2)[Gal(b1-3)GlcNAc(b1-3)Gal(b1-4)GlcNAc(b1-3)Gal(b1-4)GlcNAc(b1-6)]Man(a1-6)[Gal(b1-3)GlcNAc(b1-3)Gal(b1-4)GlcNAc(b1-3)Gal(b1-4)GlcNAc(b1-2)Man(a1-3)]Man(b1-4)GlcNAc(b1-4)[Fuc(a1-6)]GlcNAc
# Outline: as §1
# [22] = target: Gal(b1-3)GlcNAc(b1-3)Gal(b1-4)GlcNAc(b1-6)[Gal(b1-3)GlcNAc(b1-3)]Gal(b1-4)Glc
# Outline: as §1
# [23] = target: Gal(b1-3)GlcNAc(b1-3)Gal(b1-4)[Fuc(a1-3)]GlcNAc
# Outline: as §1
# [24] = target: Gal(b1-3)GlcNAc(b1-3)Gal(b1-4)[Fuc(a1-3)]GlcNAc(b1-6)[Gal(b1-3)GlcNAc(b1-3)]Gal(b1-4)Glc
# Outline: as §1
# [25] = target: Gal(b1-3)GlcNAc(b1-3)GalNAc
# Outline: as §1
# [26] = target: Gal(b1-3)GlcNAc(b1-6)Gal(b1-4)GlcNAc
# Outline: as §1
# [27] = target: Gal(b1-3)GlcNAc(b1-6)GalNAc
# Outline: as §1
binder,measurement,setting,value
B1,glycan array binding signal (z-score),[1],5.23
same,glycan array binding signal (z-score),[2],0.219
same,glycan array binding signal (z-score),Gal(a1-4)Gal(b1-4)Glc,-0.204
same,glycan array binding signal (z-score),Gal(a1-4)Gal(b1-4)GlcNAc,-0.328
same,glycan array binding signal (z-score),[3],-0.1
same,glycan array binding signal (z-score),[4],-0.356
same,glycan array binding signal (z-score),Gal(a1-4)GlcNAc,-0.32
same,glycan array binding signal (z-score),Gal(a1-6)Glc,-0.252
same,glycan array binding signal (z-score),Gal(b1-2)Gal,-0.362
same,glycan array binding signal (z-score),Gal(b1-3)Gal,-0.365
same,glycan array binding signal (z-score),Gal(b1-3)Gal(b1-4)GlcNAc,-0.384
same,glycan array binding signal (z-score),Gal(b1-3)GalNAc,-0.198
same,glycan array binding signal (z-score),[5],-0.39
same,glycan array binding signal (z-score),[6],-0.361
same,glycan array binding signal (z-score),Gal(b1-3)GalNAc(b1-3)Gal,-0.277
same,glycan array binding signal (z-score),[7],-0.336
same,glycan array binding signal (z-score),[8],-0.241
same,glycan array binding signal (z-score),[9],-0.373
same,glycan array binding signal (z-score),Gal(b1-3)GlcNAc,-0.23
same,glycan array binding signal (z-score),[10],0.107
same,glycan array binding signal (z-score),[11],0.187
same,glycan array binding signal (z-score),Gal(b1-3)GlcNAc(b1-2)Man,-0.216
same,glycan array binding signal (z-score),[12],7.76
same,glycan array binding signal (z-score),[13],-0.248
same,glycan array binding signal (z-score),[14],-0.246
same,glycan array binding signal (z-score),[15],0.264
same,glycan array binding signal (z-score),[16],-0.344
same,glycan array binding signal (z-score),[17],-0.328
same,glycan array binding signal (z-score),[18],-0.336
same,glycan array binding signal (z-score),[19],0.694
same,glycan array binding signal (z-score),[20],4.21
same,glycan array binding signal (z-score),[21],1.87
same,glycan array binding signal (z-score),[22],-0.331
same,glycan array binding signal (z-score),[23],-0.176
same,glycan array binding signal (z-score),[24],-0.355
same,glycan array binding signal (z-score),[25],0.725
same,glycan array binding signal (z-score),[26],-0.218
same,glycan array binding signal (z-score),[27],2.79
